In all, about 33,000 sequences were measured (“E-score (-0.5 to 0.5)”: median about -0.021, highest 2% from about 0.32 on). The list shows a part of the results.
target: T1, Zap1 (UniProt P47043); assay: PBM E-score (8-mer binding enrichment) (E-score (-0.5 to 0.5)); higher = stronger / more preferred TF binding; most listed sequences are background and not binding sites; conditions: protein concentration: 200 nM; construct: GST-full length
T1 sequence: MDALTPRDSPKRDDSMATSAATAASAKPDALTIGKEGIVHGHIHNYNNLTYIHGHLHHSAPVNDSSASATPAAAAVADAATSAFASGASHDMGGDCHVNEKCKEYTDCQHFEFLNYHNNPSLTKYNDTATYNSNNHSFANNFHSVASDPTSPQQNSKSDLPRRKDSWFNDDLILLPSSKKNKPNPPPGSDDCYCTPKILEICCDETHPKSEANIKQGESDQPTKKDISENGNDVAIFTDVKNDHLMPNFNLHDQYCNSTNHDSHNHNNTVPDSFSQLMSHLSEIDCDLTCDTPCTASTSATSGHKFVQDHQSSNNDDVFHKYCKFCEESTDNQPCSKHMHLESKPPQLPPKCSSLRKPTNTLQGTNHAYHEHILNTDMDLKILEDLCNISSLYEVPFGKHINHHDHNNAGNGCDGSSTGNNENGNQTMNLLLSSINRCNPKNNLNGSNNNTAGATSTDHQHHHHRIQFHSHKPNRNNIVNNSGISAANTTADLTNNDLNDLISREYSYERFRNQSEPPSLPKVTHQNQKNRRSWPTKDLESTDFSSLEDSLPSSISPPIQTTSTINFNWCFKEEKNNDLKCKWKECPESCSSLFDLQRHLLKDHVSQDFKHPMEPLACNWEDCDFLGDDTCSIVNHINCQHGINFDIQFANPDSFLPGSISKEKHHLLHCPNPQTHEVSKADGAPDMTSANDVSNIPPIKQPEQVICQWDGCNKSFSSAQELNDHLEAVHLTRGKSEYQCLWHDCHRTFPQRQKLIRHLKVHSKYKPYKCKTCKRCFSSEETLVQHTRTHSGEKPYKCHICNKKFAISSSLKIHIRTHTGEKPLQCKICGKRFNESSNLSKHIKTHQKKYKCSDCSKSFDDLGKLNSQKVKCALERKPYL
Description: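 Universal 'all 10-mer' protein binding microarrays (Agilent AMADID 015681) probed with GST-tagged S. cerevisiae TFs (full-length or DBD) made by in vitro transcription/translation (PURExpress), about 100-200 nM. Bound TF was detected with fluorescent anti-GST. Each ungapped 8-mer (which stands for itself and its reverse complement) is scored by the PBM enrichment score (E-score), a modified Wilcoxon-Mann-Whitney statistic from -0.5 to +0.5, computed with the Universal PBM Analysis Suite. Scale: above 0.35 generally sequence-specific binding.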

| Sequence | PBM E-score |
| --- | --- |
| AAACCGGG | 0.265 |
| CAAGCTGG | -0.204 |
| CTAGTTCA | -0.00273 |
| AGATCGGC | -0.193 |
| AGGGATAG | -0.03 |
| AGTCACAC | -0.299 |
| TACTGATA | 0.216 |
| AGATGTAG | -0.103 |
| CTTTTTGC | 0.00228 |
| ATTTAGAC | 0.103 |
| GCGCGTAA | -0.091 |
| AAAGAACC | 0.284 |
| GCAGCGTA | -0.277 |
| AAAGGCCT | 0.107 |
| AACTTTCA | 0.252 |
| GCTCTCCA | -0.183 |
| CTGACCGA | -0.0913 |
| ATACGCAA | 0.158 |
| ACTGGGGA | -0.158 |
| AACTGGAC | 0.00749 |
| AGTCTTGA | -0.0607 |
| AAGAAGCG | -0.162 |
| CGATTCAC | -0.227 |
| AATTATCA | 0.154 |
| AGGACACG | -0.106 |

| Sequence | PBM E-score |
| --- | --- |
| AGGGTCGC | 0.364 |
| GAACGAGC | -0.119 |
| AATAAGCA | 0.0757 |
| ACGCCAAG | -0.159 |
| CCGGGCTC | -0.232 |
| GCGGGAAC | -0.224 |
| CCCACCAC | 0.173 |
| GATGGTGA | -0.0368 |
| AACCTCCA | 0.0742 |
| GACTGCGA | -0.0511 |
| CTAACGTC | -0.0612 |
| CACGAACG | -0.172 |
| CGCTGGAG | -0.157 |
| ATCTACCA | 0.102 |
| ACCGCCTG | -0.0532 |
| GAGGACTA | -0.121 |
| GAGTGACA | -0.074 |
| ATGCCTAA | -0.208 |
| ACTCGGGC | -0.298 |
| ATTTCCCC | -0.231 |
| GATGCACA | -0.163 |
| GTTGTCGA | 0.0841 |
| ATGATGTA | 0.0657 |
| AGCACATA | 0.0424 |
| ATGCTTTC | -0.0842 |

| Sequence | PBM E-score |
| --- | --- |
| GGTATTTA | 0.082 |
| AAAAGAAG | 0.0154 |
| GAACTTGA | 0.0747 |
| ACGGACCG | -0.0571 |
| AGGTGGTG | 0.136 |
| GATGATCC | -0.0878 |
| CTATAGAA | 0.0447 |
| CCGGAGAG | -0.149 |
| CTAACCGC | 0.223 |
| CTAACTCC | -0.133 |
| TTATCGAA | 0.152 |
| ATCGTAGA | -0.17 |
| AACGAGAA | 0.0322 |
| AACGAAAA | 0.0813 |
| CTTACGTA | -0.134 |
| TAGTCGGA | -0.0573 |
| ACTAACCG | 0.144 |
| ATAAGAAA | 0.105 |
| ACCCGAGT | 0.139 |
| TACCTACA | 0.137 |
| AACTTTCC | -0.0817 |
| ACGGAGAC | 0.0642 |
| GCTAGCGA | -0.0935 |
| ACAAAGCG | 0.127 |
| GATTAACA | 0.139 |

| Sequence | PBM E-score |
| --- | --- |
| ATGCTAGA | -0.172 |
| ACCGAACC | -0.109 |
| GGCGTATA | -0.085 |
| AAGTTATA | 0.184 |
| ACAGCCGT | -0.123 |
| CGTAGGAA | -0.156 |
| ATTAGCAG | -0.17 |
| CCATTGGC | -0.107 |
| AGTTTCGA | -0.031 |
| TCATTAGA | 0.097 |
| AGACCTGG | -0.129 |
| ATTACTAC | -0.0837 |
| TCGCGCCA | 0.044 |
| CGGCTCGA | -0.172 |
| ATGGATGG | -0.128 |
| ATTACCGG | 0.125 |
| TCTAGTAA | 0.109 |
| CATCCTGG | -0.118 |
| GCTCGAGA | -0.159 |
| ACGACGCT | -0.172 |
| ACAATAAA | 0.0666 |
| CCCGTTAA | 0.0396 |
| ATAGCTAC | -0.082 |
| AACATTGG | -0.21 |
| ACTGTCAC | 0.0771 |

| Sequence | PBM E-score |
| --- | --- |
| AGACATCA | -0.0482 |
| AGGTGTTA | -0.0266 |
| CGACGTCC | -0.136 |
| GCTTATGA | 0.0321 |
| GGCCATGA | 0.194 |
| GTTGTACA | 0.242 |
| GCCGTTGA | -0.0818 |
| CGGGGTCC | 0.0501 |
| GCTCGATA | -0.135 |
| AGATCTCA | -0.0481 |
| GAGAACGA | -0.0214 |
| AAGGGTCG | 0.36 |
| CGCATCCA | 0.0236 |
| GTAGTGAC | 0.0821 |
| GGCTGTAA | -0.0332 |
| CATCGACG | -0.272 |
| AGGCATTA | -0.208 |
| TCTCTGCA | -0.00433 |
| CGGGGATA | 0.00971 |
| CCACATCG | 0.0835 |
| AAGTTGTA | 0.112 |
| CGATTATC | -0.0531 |
| AAACAACA | 0.0829 |
| ATAATTTG | 0.164 |
| ACGCCACC | -0.144 |

| Sequence | PBM E-score |
| --- | --- |
| TCTGAAGA | -0.202 |
| CGCTGAGC | -0.355 |
| CCTACGAC | -0.0151 |
| TCGTAAAA | 0.0905 |
| ACACGGCC | -0.077 |
| CCAACCAA | 0.00471 |
| AGGCGGTG | -0.0271 |
| CAGCCCTC | -0.196 |
| CCTCTGCA | -0.0993 |
| ACTAGCCG | -0.177 |
| TCATGCCA | -0.126 |
| CTATGGCA | -0.0888 |
| CTCTCCAA | -0.0435 |
| ATGGCACA | -0.0739 |
| CCGTTGAG | -0.184 |
| TCTTTTAA | 0.195 |
| ACCGTAAG | 0.101 |
| CCGCGGGA | 0.0216 |
| CAAAAGTA | 0.16 |
| AAGTCTCG | -0.0214 |
| CCGGAGGA | -0.228 |
| ATGGGCTA | 0.128 |
| ACTAACTA | 0.0988 |
| AGTTGGGC | -0.094 |
| GGTTTTTA | 0.243 |

| Sequence | PBM E-score |
| --- | --- |
| GACCGAAA | 0.117 |
| AGTCTGAC | -0.0587 |
| GATGGCAC | -0.235 |
| AAAACTGA | 0.0781 |
| CGCGACCA | 0.213 |
| GGTGGGTA | 0.233 |
| ATCCTTCG | -0.0734 |
| CACGATTA | 0.0273 |
| ACTCGAAT | -0.0228 |
| CGTAGCGA | -0.251 |
| ATTTTGTA | 0.254 |
| CACACGAG | -0.0928 |
| AGATTATA | 0.0691 |
| AAACACGA | 0.14 |
| ATTCTCCG | -0.164 |
| CAGCTTCA | -0.0747 |
| TCAGCGAA | -0.107 |
| ATTGCGGA | 0.16 |
| CCGCAAGG | 0.0916 |
| CTAACGCA | -0.00926 |
| GAGTCCAC | -0.0624 |
| GCGAGGCA | -0.138 |

Source: the supplement of paper PMC3334620
